# Results as given in PubChem BioAssay AID686978 (National Center for Advancing Translational Sciences (NCATS), 2013).
# In all, about 420,000 compounds went through this assay and about 64,000 (15%) were called active. Inconclusive means that the source gave no clear call. Such entries were picked first, then a sample of the others. Calls come from the whole dose curve; as a rule, active = well fitted inhibition curve with a large enough effect; inconclusive = small, poorly fitted or top-dose-only effect; inactive = flat fitted curve, though single readings scatter. No potency is given beside an inconclusive call; the fits are too rough.
# Assay: qHTS for Inhibitors of human tyrosyl-DNA phosphodiesterase 1 (TDP1): qHTS in cells in absence of CPT; note: nearly all actives have a fitted effect of over 55% in size
# Conditions: DT40 Tdp1-/- hTDP1 cells, no CPT, ATP luminescence, 48 h; activity change, negative = growth inhibition: at 46.2 µM (top of the series)
# Method in brief: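 Chicken DT40 Tdp1-/- cells complemented with human TDP1, screened without camptothecin (DMSO vehicle only), 400 cells/well. Compounds pin-transferred, cells incubated at 37 °C for at least 48 hr. Growth read as ATP-dependent luminescence (CellTiter-Glo, 30 min at RT).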
# % is set by controls: 0 for no effect and ±100 for the full control effect; potency is the fitted concentration of half-maximal effect; tags give direction and shape of the fitted curve.
Structure (SMILES),Potency,"activity change, negative = growth inhibition"
CSc1ccc(CNC(=O)Cc2csc3ccccc23)cc1,"inconclusive [inhibitor, single point]",–
COC(=O)[C@]1(C)N[C@H](CN(C)C(=O)C2CCCCC2)[C@@H]2C(=O)N(Cc3ccccc3)C(=O)[C@@H]21,inactive,–
CC(C)=CCC1=C(O)c2ccccc2C(=O)C1=O,"inconclusive [inhibitor, single point]",inactive: -5.63% [at 9.04 µM]
CCOc1ccc(Nc2nc3ccccc3n2C)cc1,"inconclusive [inhibitor, partial curve, poor fit]",–
Nc1ncnc2c1ncn2[C@@H]1O[C@H](CNCc2c(OCc3ccccc3F)ccc3ccccc23)[C@@H](O)[C@H]1O,"inconclusive [inhibitor, single point]",–
Cc1ccccc1C(=O)Nc1ccc(N2CCN(C(=O)c3ccco3)CC2)cc1,"inconclusive [inhibitor, partial curve]",–
CN(C)C(=O)CSc1nc2cc(S(=O)(=O)N3CCOCC3)ccc2o1,"inconclusive [inhibitor, single point]",–
COc1cc(OC)cc(-c2oc3cccnc3c2C#CCCO)c1,"inconclusive [inhibitor, single point]",–
CC(=O)NCCNc1nc2c(-c3cccc(C)c3)nnn2c2ccc(Cl)cc12,inactive,–
O=C(NNC(=O)c1ccc(Cn2cccn2)o1)NC12CC3CC(CC(C3)C1)C2,inactive,–
CC1CCCN(C(=O)CCc2ccccc2)C1 (configuration not stated),inactive,–
O=C(O)C1CC=CCC1C(=O)Nc1ccccc1 (configuration not stated),inactive,–
COc1ccc2cc(CCNC(=O)c3ccc(Br)o3)c(=O)[nH]c2c1,"inconclusive [inhibitor, partial curve]",–
O=C(O)CSc1nnc(NC(=O)c2ccc3c(c2)OCO3)s1,inactive,–
CC1(C)COC(c2cccc([N+](=O)[O-])c2)OC1,inactive,–
CCN1C(=O)CSC1=Nc1ccc(Cl)c(Cl)c1,"inconclusive [inhibitor, single point]",–
COc1ccccc1CN1CCC(n2cc(C(=O)N3CCCCC3)nn2)CC1,inactive,–
CC(=O)Nc1sc2c(c1C#N)CCCC2,inactive,–
COC(=O)c1c(NC(=O)CCc2ccc(C)o2)sc(C)c1C,"inconclusive [inhibitor, single point]",–
CC(C)N(Cc1ccccc1)C(=O)CCc1ccccc1,"inconclusive [inhibitor, single point]",–
CCCN(CC(=O)Nc1ccccc1C)C(=O)c1ccc2c(c1)S(=O)(=O)N=C1CCCCCN12,inactive,–
